{
  "source": "paper PMC6919601",
  "about": "“Identification of Plasmodium dipeptidyl aminopeptidase allosteric inhibitors by high throughput screening” (PLoS ONE, 2019)",
  "note": "Hit rate of the full screen: of about 110,000 compounds, about 230 (0.21%) showed an effect of 50% or more. The list shows a part of the results.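 Also: 30 min substrate incubation versus DMSO and 10 µM JCP410 controls.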",
  "data": [
    {"target": "DPAP1 (Plasmodium falciparum, UniProt Q8IIJ9)", "sequence (Q8IIJ9 whole entry, looked up)": "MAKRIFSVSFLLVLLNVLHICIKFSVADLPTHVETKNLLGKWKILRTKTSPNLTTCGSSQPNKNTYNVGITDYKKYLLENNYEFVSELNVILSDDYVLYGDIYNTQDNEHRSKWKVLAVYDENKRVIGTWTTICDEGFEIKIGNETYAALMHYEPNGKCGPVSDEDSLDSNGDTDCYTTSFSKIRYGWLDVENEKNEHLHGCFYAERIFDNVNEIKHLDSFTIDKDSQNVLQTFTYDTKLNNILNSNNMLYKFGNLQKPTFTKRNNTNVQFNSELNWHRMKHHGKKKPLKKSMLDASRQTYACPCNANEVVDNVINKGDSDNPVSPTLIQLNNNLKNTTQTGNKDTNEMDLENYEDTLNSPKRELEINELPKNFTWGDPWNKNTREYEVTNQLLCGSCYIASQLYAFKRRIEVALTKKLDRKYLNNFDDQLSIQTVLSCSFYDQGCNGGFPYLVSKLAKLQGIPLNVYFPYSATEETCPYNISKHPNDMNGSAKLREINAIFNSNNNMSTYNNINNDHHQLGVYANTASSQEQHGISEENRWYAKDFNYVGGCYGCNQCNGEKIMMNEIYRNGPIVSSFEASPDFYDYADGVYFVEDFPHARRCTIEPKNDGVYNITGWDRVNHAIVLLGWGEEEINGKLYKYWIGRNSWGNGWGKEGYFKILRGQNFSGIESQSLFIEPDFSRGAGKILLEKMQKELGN", "assay": "primary screen, percent inhibition; read by cleavage of a fluorogenic dipeptide substrate; higher = more effect of the substance", "parameters": "species or system P. falciparum D10 trophozoite lysates; single well", "units": {"% Inhibition @ 10 uM": "%"}, "values": [
      {"smiles": "CCC(C)Sc1nc2c(c(=O)[nH]c(=O)n2C)n1Cc1ccccc1Cl", "note": "(centres unmarked)", "% Inhibition @ 10 uM": 2.46},
      {"smiles": "O=C(NC1CC1)C1=CCN(S(=O)(=O)c2ccc(Br)cc2)CC1", "% Inhibition @ 10 uM": 0.277},
      {"smiles": "Cc1cc2nc(-c3ccncc3)cc(C(F)(F)F)n2n1", "% Inhibition @ 10 uM": -2.91},
      {"smiles": "CCOc1ccc(CNCc2c(C(=O)O)c(C)n(Cc3ccccc3C)c2C)cc1OC", "% Inhibition @ 10 uM": -5.72},
      {"smiles": "Cc1ccc(C(=O)c2cnc3ccccc3c2N2CCCC2)cc1", "% Inhibition @ 10 uM": -5.03},
      {"smiles": "OCC1CC(CO)C(F)(C(F)(F)F)C1(F)F", "note": "(centres unmarked)", "% Inhibition @ 10 uM": 2.6},
      {"smiles": "C=CCNc1nc(Cl)nc(NCc2ccco2)n1", "% Inhibition @ 10 uM": -3.35},
      {"smiles": "CCC1(C)OC(=O)N(CCOC23CC4CC(CC(C4)C2)C3)C1(C)O", "note": "(centres unmarked)", "% Inhibition @ 10 uM": -5.63},
      {"smiles": "c1ccc(Cc2nc3c(ccc4nsnc43)[nH]2)cc1", "% Inhibition @ 10 uM": -2.14},
      {"smiles": "CCSc1nc(N)c(C#N)c(-c2ccccc2)c1C#N", "% Inhibition @ 10 uM": -1.07},
      {"smiles": "CC(C)C[C@H](NS(=O)(=O)c1cccc(Br)c1)C(=O)NCC#N", "% Inhibition @ 10 uM": -0.207},
      {"smiles": "c1ccc2c(c1)NC1CCCCC1C1(CCCCC1)N2", "note": "(centres unmarked)", "% Inhibition @ 10 uM": -3.86},
      {"smiles": "COc1cccc(NCN2C(=O)c3ccccc3C2=O)c1", "% Inhibition @ 10 uM": -3.52},
      {"smiles": "CCOC(=O)N1CCc2c(sc3c2C(=O)NC(c2cc4c(cc2Cl)OCO4)N3)C1", "note": "(centres unmarked)", "% Inhibition @ 10 uM": 4.08},
      {"smiles": "O=C(NCc1cccc(CNC(=O)C2CCCO2)c1)C1CCCO1", "note": "(centres unmarked)", "% Inhibition @ 10 uM": -2.6},
      {"smiles": "COc1ccc(-c2nnc(N3CCC(C)CC3)c3ccccc23)cc1", "% Inhibition @ 10 uM": -2.75},
      {"smiles": "CC[C@H](NC(=O)C1(NC(=O)c2ccc(-c3ccccc3Cl)c(Cl)c2)CCCCCC1)C(=O)c1nc2ccccc2o1", "% Inhibition @ 10 uM": -1.5},
      {"smiles": "O=S(=O)(NC1CC1)c1ccc(Br)cc1", "% Inhibition @ 10 uM": -2.77},
      {"smiles": "Cc1nn(C(C)C(=O)NCCCN(C)C2CCCCC2)c(=O)c2cc3occc3n12", "note": "(centres unmarked)", "% Inhibition @ 10 uM": -2},
      {"smiles": "CCc1cc(=O)oc2c3c(c(Cl)cc12)OCN(Cc1ccc2c(c1)OCO2)C3", "% Inhibition @ 10 uM": 2.54},
      {"smiles": "COc1ccc(-c2ccc(CNCCSc3nnnn3C)o2)cc1Cl", "% Inhibition @ 10 uM": 1.46},
      {"smiles": "Fc1ccccc1CN1CCN(c2cccc(Cl)c2)CC1", "% Inhibition @ 10 uM": 3.25},
      {"smiles": "Cc1cnc(C)c(N2CCC(O)CC2)n1", "% Inhibition @ 10 uM": 0.51},
      {"smiles": "CC(=O)N1CCN(Cc2c(Cl)cccc2Cl)CC1", "% Inhibition @ 10 uM": -4.95},
      {"smiles": "CC(=O)c1c(C)n(-c2ccc(C)cc2C)c2ccc(OCC(N)=O)cc12", "% Inhibition @ 10 uM": -1.33},
      {"smiles": "Cc1cccc(N2CCc3c2nc2ccccc2c3NC(=O)CN2CCCCC2)c1", "% Inhibition @ 10 uM": -3.63},
      {"smiles": "CC1CCCC(C)N1CCCNC(=O)c1csc2c1CCCC2", "note": "(centres unmarked)", "% Inhibition @ 10 uM": -1.44},
      {"smiles": "CCOc1ccccc1N1CCN(C(=O)c2cccc([N+](=O)[O-])c2C)CC1", "% Inhibition @ 10 uM": -4.03},
      {"smiles": "Cc1ccc2nc(Cl)c3cc(C(=O)N4CCN(C(=O)c5ccco5)CC4)sc3c2c1", "% Inhibition @ 10 uM": -1.7},
      {"smiles": "Cc1cc(C)c(C#N)c(SCC(=O)Nc2nonc2N)n1", "% Inhibition @ 10 uM": 1.11},
      {"smiles": "c1ccc(CCNC2CCCc3c2[nH]c2ccc(-c4ccccc4)cc32)cc1", "note": "(centres unmarked)", "% Inhibition @ 10 uM": 7.72},
      {"smiles": "Cc1ccc(C(=O)NS(=O)(=O)c2ccccc2)cc1", "% Inhibition @ 10 uM": -1.93},
      {"smiles": "O=[N+]([O-])c1cnc(-c2ccccc2)nc1", "% Inhibition @ 10 uM": 0.215},
      {"smiles": "Cc1nc2c(C)cccc2c(O)c1CN1CCCC(C)C1", "note": "(centres unmarked)", "% Inhibition @ 10 uM": 2.17},
      {"smiles": "O=C(O)c1ccc(N2C(=O)c3ccc(C(=O)c4ccc5c(c4)C(=O)N(c4ccc(C(=O)O)cc4)C5=O)cc3C2=O)cc1", "% Inhibition @ 10 uM": -3.55},
      {"smiles": "CCN1CCN(C2=NC(=O)/C(=C/c3ccccc3O)S2)CC1", "% Inhibition @ 10 uM": 0.561},
      {"smiles": "CCCCS(=O)(=O)N1CCC(c2nnnn2-c2ccc(F)cc2)CC1", "% Inhibition @ 10 uM": -4.67},
      {"smiles": "CCOC(=O)c1[nH]c2cc(OC)c(OC)cc2c1N1C(=O)CCC1=O", "% Inhibition @ 10 uM": -1.7},
      {"smiles": "Cc1ccc(C2=NN(CCC(=O)N3CCOCC3)C(=O)CC2)cc1", "% Inhibition @ 10 uM": 1.62},
      {"smiles": "CCn1nccc1C(=O)Nc1ccc(C)c(Cl)c1", "% Inhibition @ 10 uM": 3.9},
      {"smiles": "CCC(C)C(Nc1ncnc2ccccc12)C(=O)O", "note": "(centres unmarked)", "% Inhibition @ 10 uM": 1.52},
      {"smiles": "OCCN(CCO)Cc1cc(F)ccc1F", "% Inhibition @ 10 uM": -5.31},
      {"smiles": "Cc1ccc(-c2c(Nc3cccnc3)c(=O)c2=O)cc1", "% Inhibition @ 10 uM": 3.04},
      {"smiles": "Cc1ccccc1C(=O)Nc1cccc(C(F)(F)F)c1", "% Inhibition @ 10 uM": -3.94},
      {"smiles": "O=C(O)c1c(CNCCC2=CCCCC2)c2ccccc2n1Cc1ccccc1F", "% Inhibition @ 10 uM": -3.21},
      {"smiles": "N=C1/C(=C\\c2ccc(SCc3ccc(Cl)cc3)o2)C(=O)N=C2SC=NN12", "% Inhibition @ 10 uM": -7.13},
      {"smiles": "CCOCCCNC(=O)CS(=O)(=O)Cc1nc(-c2ccc(C)cc2)oc1C", "% Inhibition @ 10 uM": -5.82},
      {"smiles": "O=C(NC1CCN(Cc2ccccc2)CC1)c1ccccc1Br", "% Inhibition @ 10 uM": -1.22},
      {"smiles": "O=C(C1CCN(c2nc3ccccc3n3cccc23)CC1)N1CCN(c2ccccn2)CC1", "% Inhibition @ 10 uM": 5.04},
      {"smiles": "O=C(Nc1ccc(S(=O)(=O)Nc2cnc3ccccc3n2)cc1)c1cccnc1", "% Inhibition @ 10 uM": -1.88},
      {"smiles": "Cc1ccc(S(=O)(=O)N(C)CCc2c[nH]c3ccccc23)cc1", "% Inhibition @ 10 uM": -3.04},
      {"smiles": "CC1CCCCN1C(=S)NCCc1ccccc1", "note": "(centres unmarked)", "% Inhibition @ 10 uM": -2.5},
      {"smiles": "Cc1cc(=O)n2nc(N(C)CC(=O)O)sc2n1", "% Inhibition @ 10 uM": -1.6},
      {"smiles": "COC(=O)Nc1ccc(Br)cn1", "% Inhibition @ 10 uM": 6.5},
      {"smiles": "CCOc1ccccc1/C=C1N=C(/C=C/c2ccccc2)OC/1=O", "% Inhibition @ 10 uM": 7.01},
      {"smiles": "Cc1cccc(C)c1NC(=O)C(c1ccccc1)N(C(=O)C1CCC(=O)N1)c1ccccc1", "note": "(centres unmarked)", "% Inhibition @ 10 uM": 2.39},
      {"smiles": "Cc1cccc(OCC(=O)N2CCc3ccccc32)c1", "% Inhibition @ 10 uM": -1.38},
      {"smiles": "COC(=O)C(Cc1ccccc1)NC(=O)c1ccc(-c2ccccc2)cc1", "note": "(centres unmarked)", "% Inhibition @ 10 uM": -2.51},
      {"smiles": "CCC(C(=O)Nc1ccc(S(=O)(=O)N2CCC(C)CC2)cc1)c1ccccc1", "note": "(centres unmarked)", "% Inhibition @ 10 uM": -0.0938},
      {"smiles": "O=C(CCCSc1nc(-c2ccco2)cc(C(F)(F)F)n1)NCc1ccncc1", "% Inhibition @ 10 uM": 0.0289},
      {"smiles": "O=C(COc1ccc(Cl)cc1Cl)N(c1ccccc1)c1ccccc1", "% Inhibition @ 10 uM": 4.93},
      {"smiles": "CC(=O)c1ccc(NC(=O)C(C(C)C)N2C(=O)c3ccccc3C2=O)cc1", "note": "(centres unmarked)", "% Inhibition @ 10 uM": 8.19},
      {"smiles": "CCc1ccc(-n2c(SCC(=O)NCc3ccco3)nc3nnc(C)c-3c2N)cc1", "% Inhibition @ 10 uM": 4.15},
      {"smiles": "CC(=O)N1c2ccccc2N=C2CC(c3ccc(N(C)C)cc3)CC(O)=C2C1c1ccccc1", "note": "(centres unmarked)", "% Inhibition @ 10 uM": -2.68},
      {"smiles": "COCCNC(=O)C(C)n1nc(C)c2c(C)n(-c3ccccc3)nc2c1=O", "note": "(centres unmarked)", "% Inhibition @ 10 uM": -1.57}
    ]}
  ]
}
